# Values joined by “and” are separate entries in the source; they are usually repeats but may differ in a detail not shown here. Equal entries are not always repeated. Hit rate of the full screen: of about 420,000 compounds, about 64,000 (15%) were called active. The shares of active, inactive and inconclusive entries below differ from those in the screen. Calls come from the whole dose curve; as a rule, active = well fitted inhibition curve with a large enough effect; inconclusive = small, poorly fitted or top-dose-only effect; inactive = flat fitted curve, though single readings scatter. Potencies of inconclusive entries are doubtful fits and often do not repeat.
# Assay: qHTS for Inhibitors of human tyrosyl-DNA phosphodiesterase 1 (TDP1): qHTS in cells in absence of CPT; note: nearly all actives have a fitted effect of over 55% in size
# Conditions: DT40 Tdp1-/- hTDP1 cells, no CPT, ATP luminescence, 48 h; activity change, negative = growth inhibition: at 46.2 µM (top of the series) unless noted
# Summary of the method: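 A cellular qHTS used chicken DT40 cells lacking endogenous Tdp1 but carrying stably transfected human TDP1. Compounds were applied without camptothecin, and cell growth kinetics were judged by ATP-dependent luminescence after ≥48 hr.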
# % is set by controls: 0 for no effect and ±100 for the full control effect; potency is the fitted concentration of half-maximal effect; tags give direction and shape of the fitted curve.
SMILES,Potency,"activity change, negative = growth inhibition"
CCOC(=O)C1=C(C)N(CC(C)C)C(=O)/C1=C\c1ccc(OCC(=O)Nc2ccccc2)cc1,"inconclusive: 29.1 µM [inhibitor, single point]",
Cc1c(-c2nc(N)nc(Nc3ccccc3F)n2)oc2ccccc12,active: 18.4 µM,
COc1cccc(-c2ccc(SCC(=O)NC3CCCCC3)nn2)c1,"inconclusive: 29.1 µM [inhibitor, single point]",
c1csc(-c2nn3cnnc3c3ccccc23)c1,"inconclusive: 25.9 µM [inhibitor, partial curve]",
CCC(O)c1cc2c(cc1NC(=O)c1ccccc1F)OCCO2 (configuration not stated),"inconclusive: 23.1 µM [inhibitor, single point]",
CCc1ccc(N(C(=O)c2snc(C(N)=O)c2N)C(C(=O)NCCC(C)C)c2c[nH]c3ccccc23)cc1 (configuration not stated),"inconclusive: 14.6 µM [inhibitor, partial curve]",
COc1ccc(NC(=O)c2ccc(Cl)c(S(=O)(=O)N3CC(C)OC(C)C3)c2)cn1 (configuration not stated),"inconclusive: 29.1 µM [inhibitor, single point]",
Cc1ccc2c(c1)nnn2C1CCN(CC(=O)N2c3ccccc3CC2C)CC1 (configuration not stated),"inconclusive: 16.4 µM [inhibitor, single point]",
OCCOCCN1CCN(C(c2ccccc2)c2ccc(Cl)cc2)CC1 (configuration not stated),"inconclusive: 33.5 µM [inhibitor, single point] and inconclusive: 29.1 µM [inhibitor, single point]",
COc1ccc(-c2nnc(SCC(=O)N3CCCc4ccccc43)o2)cc1OC,"inconclusive: 29.1 µM [inhibitor, single point]",
COc1cc(OCc2ccccc2)c(C(=O)/C=C/c2ccc3c(c2)OCO3)c(OC)c1OC,"inconclusive: 18.4 µM [inhibitor, single point]",
O=[N+]([O-])c1cc([N+](=O)[O-])c2cccnc2c1Oc1ccccc1O,active: 1.84 µM,
O=C1C(=O)c2ncccc2-c2cccnc21,active: 5.31 µM,
CCOC(=O)c1c(NC(=O)C(=O)N/N=C/c2ccc(OCC)cc2)sc2c1CCCCC2,"inconclusive: 29.1 µM [inhibitor, single point]",
O=C(Nc1ccc(Cc2ccncc2)cc1)C1CCC(N2C(=O)C3C4C=CC(C5CC45)C3C2=O)CC1 (configuration not stated),active: 14.6 µM,
C=CCn1c(SCC(=O)c2c(N)n(C)c(=O)n(C)c2=O)nnc1-c1ccccc1F,"inconclusive: 29.1 µM [inhibitor, single point]",
COc1ccc(-n2c(=O)c(C)nc3cnc(N(C)C)nc32)cc1,,inactive: -29.9%
CCCCOC(=O)c1ccc(NC(=O)c2cnc3n(c2=O)CCS3)cc1,"inconclusive: 9.2 µM [inhibitor, partial curve]",
COc1ccc(OC)c(S(=O)(=O)N(C)CC(=O)N2CCN(c3cccc(Cl)c3)CC2)c1,active: 18.4 µM,
COc1ccc(CCNC(=O)c2ccccc2NC(=O)CN2CCN(c3ccccc3O)CC2)cc1,active: 10.3 µM,
Cn1nc(C(=O)Nc2ccccc2N2CCCC2)c2ccccc2c1=O,"inconclusive: 29.1 µM [inhibitor, single point]",
CC(=O)Nc1ccc(C(=O)N2CCOCC2c2cc(C(=O)NCc3ccccc3)no2)cc1 (configuration not stated),,inactive: -13.6%
Clc1cccc2c3c([nH]c12)CCNC3,,inactive: -20.3%

SMILES,Potency,"activity change, negative = growth inhibition"
CCOC1=C2[C@@H](CN(S(=O)(=O)c3ccc(C)cc3)[C@H]2c2ccccc2F)[C@H]2C(=O)N(CC)C(=O)[C@H]2C1,"inconclusive: 20.6 µM [inhibitor, single point]",
OC(CN1C=CCc2ccccc21)c1ccc(Cl)cc1Cl (configuration not stated),"inconclusive: 28.2 µM [inhibitor, single point]",
CC(NC(=O)/C(=C/c1ccc2c(c1)OCO2)NC(=O)c1cccc([N+](=O)[O-])c1)C(=O)O (configuration not stated),,inactive: -3.4%
Cc1cc(-c2ccccc2)c2c3c(c(-c4ccccc4)n2n1)c(=O)n(C)c(=O)n3C,"inconclusive: 23.1 µM [inhibitor, partial curve]",
COc1ccc(C(=O)NC(C)c2cccnc2)cc1S(=O)(=O)N(C)Cc1ccccc1 (configuration not stated),"inconclusive: 29.1 µM [inhibitor, single point]",
Cc1ccccc1/C=C/c1cccc[n+]1C,"inconclusive: 20.6 µM [inhibitor, single point]",
COc1ccc(CCC(=O)N2CCN(S(=O)(=O)c3cccs3)CC2)cc1,,inactive: -21.7%
O=C(c1cccc(F)c1)N1CCC2(CCCN(C(c3ccccc3)c3ccccc3)C2)CC1,"inconclusive: 23.1 µM [inhibitor, single point]",
Oc1ccc(CN2CCCCC2)c2cccnc12,active: 5.17 µM,
COc1ccc(C(C(=O)NCC2CCCO2)N(Cc2cccs2)C(=O)c2snc(C(N)=O)c2N)cc1 (configuration not stated),active: 10.3 µM,
C=CCn1c2ccccc2c2nnc(SCc3[nH]c(=O)[nH]c3C(=O)CCCCC(=O)OCC)nc21,"inconclusive: 20.6 µM [inhibitor, partial curve]",
CC(C)CNC(=O)c1cccc(NC(=O)c2ccc(NC(=O)c3ccco3)cc2)c1,"inconclusive: 13 µM [inhibitor, partial curve]",
CCOC(=O)Cc1csc(NS(=O)(=O)c2ccc([N+](=O)[O-])cc2)n1,,inactive: -9.89%
COc1ccccc1CNc1cc(CSc2ccc(Cl)cc2)nc(C)n1,"inconclusive: 23.1 µM [inhibitor, single point]",
Cc1ccc(N2CCN(C(=O)c3cc(S(=O)(=O)N4CCCCC4)c[nH]3)CC2)c(C)c1,active: 16.4 µM,
CCCCn1c(N)c(N(CCOC)C(=O)c2cc(Cl)nc3ccccc23)c(=O)[nH]c1=O,,inactive: 2.34%
OC(COCC1COc2ccccc2O1)CN1CCN(c2ccccc2)CC1 (configuration not stated),"inconclusive: 20.6 µM [inhibitor, single point]",
Cc1cccc(OCC(=O)N(Cc2ccccc2)c2ccccn2)c1,"inconclusive: 20.6 µM [inhibitor, single point]",
C[C@H]1CN([C@@H](C)CO)C(=O)CCCn2nncc2CO[C@@H]1CN(C)Cc1ccc(-c2ccccc2)cc1,active: 10.3 µM,
Cc1ccc(C(=O)Nc2ccc3cn[nH]c3c2)cc1S(=O)(=O)N1CCCCC1,"inconclusive: 18.4 µM [inhibitor, single point]",
O=C(NCc1ccco1)c1ccccc1Br,"inconclusive: 32.6 µM [inhibitor, partial curve, poor fit]",
COC(=O)c1cc(=O)n(Cc2ccco2)c(=Nc2ccc(F)cc2)s1,"inconclusive: 18.4 µM [inhibitor, single point]",
CC(C)C(NC(=O)Nc1ccccc1)C(=O)Nc1cccc(S(=O)(=O)N(C)C)c1 (configuration not stated),,inconclusive: -25.3% [inhibitor]

SMILES,Potency,"activity change, negative = growth inhibition"
NS(=O)(=O)c1ccc(NC(=O)COC(=O)CCc2ccccc2)cc1,,inactive: -3.1%
CCn1c(=O)c(C(=O)NCc2cccnc2)c(O)c2ccccc21,"inconclusive: 20.6 µM [inhibitor, single point]",
COc1ccc(C2C(=O)N(C3CCCCCC3)CC(=O)N2CCC2=CCCCC2)cc1 (configuration not stated),active: 14.6 µM,
Cc1onc(-c2ccccc2)c1C(=O)N(Cc1ccco1)Cc1cccs1,"inconclusive: 23.1 µM [inhibitor, single point]",
COc1ccccc1OCc1nc(-c2cccc([N+](=O)[O-])c2)no1,"inconclusive: 14.6 µM [inhibitor, partial curve]",
CS(=O)(=O)N1CCCc2cc(C(=O)Nc3cccc(C(F)(F)F)c3)ccc21,active: 18.4 µM,
Cc1nc(-c2ccc(F)cc2)c(CC(=O)N(C)CC(=O)Nc2cccc(F)c2)s1,"inconclusive: 29.1 µM [inhibitor, single point]",
O=c1[nH]c(CCC2CCCC2)nc2ccccc12,,inactive: -29.7%
CNC(=O)c1cccn1-c1ccsc1C(=O)OC,active: 18.4 µM,
C=CCOc1ccc(CNc2ccc(NC(=O)CC(C)C)cc2)cc1OC,"inconclusive: 23.1 µM [inhibitor, single point]",
O=C(COC(=O)/C=C/C(=O)OCC(=O)Nc1ccccc1F)Nc1ccccc1F,"inconclusive: 18.4 µM [inhibitor, partial curve]",
COc1ccc(N(CC(C)C)S(=O)(=O)c2nnc(NC(=O)CC(C)C)s2)cc1,"inconclusive: 9.2 µM [inhibitor, partial curve]",
COC(=O)c1cnc(N2CCN(c3ccc(F)cc3)CC2)c2ccccc12,"inconclusive: 20.6 µM [inhibitor, single point]",
COc1cccc(CNC(=O)c2c(OC)cc(=O)n3c2CCN(C(=O)C2CC24CCCC4)CC3)c1 (configuration not stated),,inactive: -4.05%
CCCSc1nnc(NC(=O)Nc2ccc(C)cc2)s1,"inconclusive: 23.1 µM [inhibitor, single point]",
COc1cc(NC(=O)Cn2cnc3sc(C)c(S(=O)(=O)N4CCOCC4)c3c2=O)cc(OC)c1OC,,inconclusive: -30.6% [inhibitor]
CC1CCC(NC(=O)c2ccc(CS(=O)(=O)c3c(Cl)cccc3Cl)o2)CC1 (configuration not stated),"inconclusive: 18.4 µM [inhibitor, single point]",
Cc1cc(OCC(=O)NCC2CCC(C(=O)O)CC2)c2c(C)c(C)c(=O)oc2c1 (configuration not stated),,inactive: 0.0818%
Cc1oc(-c2ccccc2Cl)nc1CS(=O)CC(=O)NC1CC1 (configuration not stated),,inactive: -18.9%
COc1ccccc1N1CCN(S(=O)(=O)c2cc(C(F)(F)F)cc(C(F)(F)F)c2)CC1,"inconclusive: 10.3 µM [inhibitor, partial curve]",
CCOC(=O)c1ccc2c(c1)nc(C1CCN(S(=O)(=O)c3cccs3)CC1)n2CC,"inconclusive: 23.1 µM [inhibitor, single point]",
